# Assay results reported in article PMC6919601, “Identification of Plasmodium dipeptidyl aminopeptidase allosteric inhibitors by high throughput screening” (PLoS ONE, 2019).
# Where “and” joins values, the source holds several entries; their conditions need not be identical. Equal values may be shown once. The campaign covered roughly 110,000 compounds. About 230 (0.21%) showed an effect of 50% or more. The list shows a part of the results.
# Molecular target: DPAP1 (Plasmodium falciparum, UniProt Q8IIJ9)
# Test: primary screen, percent inhibition; read by cleavage of a fluorogenic dipeptide substrate; higher = more effect of the substance
# Set-up: species or system P. falciparum D10 trophozoite lysates; single well
# 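Also: 30 min substrate incubation versus DMSO and 10 µM JCP410 controls.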
# Chain of DPAP1 (Q8IIJ9 whole entry, looked up): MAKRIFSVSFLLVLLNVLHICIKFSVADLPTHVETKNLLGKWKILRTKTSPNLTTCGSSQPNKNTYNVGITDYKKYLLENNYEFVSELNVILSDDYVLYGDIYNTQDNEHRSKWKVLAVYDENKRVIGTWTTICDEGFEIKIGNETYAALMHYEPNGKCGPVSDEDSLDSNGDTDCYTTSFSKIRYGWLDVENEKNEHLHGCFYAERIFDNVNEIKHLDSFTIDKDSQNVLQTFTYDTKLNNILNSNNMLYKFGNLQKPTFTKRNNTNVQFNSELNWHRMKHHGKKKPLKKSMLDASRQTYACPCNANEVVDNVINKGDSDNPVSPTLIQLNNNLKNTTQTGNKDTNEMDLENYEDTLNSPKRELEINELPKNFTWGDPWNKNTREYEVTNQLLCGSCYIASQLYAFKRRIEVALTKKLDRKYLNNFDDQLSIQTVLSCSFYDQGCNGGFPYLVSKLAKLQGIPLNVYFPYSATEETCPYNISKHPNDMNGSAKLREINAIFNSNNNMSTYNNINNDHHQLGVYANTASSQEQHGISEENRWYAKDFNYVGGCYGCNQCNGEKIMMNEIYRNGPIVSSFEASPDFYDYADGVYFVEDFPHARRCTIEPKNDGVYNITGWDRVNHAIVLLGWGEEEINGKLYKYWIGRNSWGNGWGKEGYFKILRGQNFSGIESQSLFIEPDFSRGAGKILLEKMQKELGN
row,Compound,% Inhibition @ 10 uM
1,COC(=O)C1=C(O)/C(=C\c2ccc(CNS(=O)(=O)c3ccccc3)o2)N=C1C,2.17%
2,COc1ccc(C2(CNC(=O)C(=O)NCc3ccco3)CCCC2)cc1OC,3.27%
3,COc1ccc(OCC(O)CN2CCCCC2)cc1 (centres unmarked),-1.29% and -2.97%
4,CCc1ccc(-c2nc(CN3CCCC(C(=O)NCc4ccccc4)C3)c(C)o2)cc1 (centres unmarked),0.689%
5,O=C1c2cnccc2CN1Cc1ccccc1,0.66%
6,O=C(O)CNC(=O)/C=C/c1cccc(C(F)(F)F)c1,2.35%
7,COC(=O)c1ccc(Br)c(S(=O)(=O)N2CCCCC2)c1,1.91%
8,COC(=O)C1=C(C)N=C(C)/C(=C(/O)OC)C1C(=O)O (centres unmarked),0.989%
9,Cc1ccc(C(=O)O)cc1NC(=O)c1cccs1,-0.582%
10,c1ccc(CN2CCN(C3CCC(c4ccccc4)CC3)CC2)cc1 (centres unmarked),2.99%
11,Cc1cc(C)c(C(=O)CC2(C(F)(F)F)NCCN2)c(O)n1,3.38%
12,CCn1c(SCc2nc(-c3ccc(Br)cc3)no2)nnc1-c1ccco1,1.74%
13,C=CCn1c(COc2ccccc2C)nc2ccccc21,9.83%
14,CCc1ccccc1N1C(=O)CC(Sc2nccc(C)n2)C1=O (centres unmarked),2.95%
15,C=CCn1c(SCC(=O)NCc2ccc3c(c2)OCO3)nc2sc3c(c2c1=O)CCCC3,-1.6%
16,O=C(CN1C(=O)c2cccc3cccc(c23)C1=O)NO,0.878%
17,Cc1ccc(-n2c(C)cc(/C=C3\C(=N)N4N=C(S(C)(=O)=O)SC4=NC3=O)c2C)c(C)c1,0.208%
18,O=C(COCc1cc(-c2ccc(F)cc2)on1)NC1CCCc2ccccc21 (centres unmarked),-8.55%
19,OC[C@@H]1C=C(c2ccccc2)C[C@H](CO)C1,-5.36%
20,CNc1ccc(OC(F)F)cc1C(=O)c1ccccc1,-0.436%
21,CC(=O)Nc1ccc(C(C)(C)c2ccc(NC(C)=O)cc2)cc1,-0.0369%
22,CCc1ccc(OCC(=O)N(Cc2nc(-c3ccc(OC)cc3)no2)C(C)C)c(Br)c1,-1.84%

row,Compound,% Inhibition @ 10 uM
1,COc1ccccc1N1CCN(C2CC(=O)N(c3ccc(C(C)C)cc3)C2=O)CC1 (centres unmarked),0.583%
2,Cc1ccc(CCN2C(=O)CCC2(C)C(=O)NC2CCC(C)CC2)cc1 (centres unmarked),5.23%
3,CC1CN(CC2=CC[C@H]3C[C@@H]2C3(C)C)CC(C)O1 (some centres unmarked),0.217%
4,COc1ccc(S(=O)(=O)N2CCN(CCO)CC2)cc1-c1nnc2c3ccccc3c(C)nn12,0.628%
5,CCOC(=O)N1CCC(N2Cc3cccc(C(=O)NCc4ccc(C)cc4)c3C2=O)CC1,2.9%
6,CCOCCCNC(=O)c1ccc(CS(=O)(=O)c2cccc(C(F)(F)F)c2)o1,2.14%
7,Nc1c(-c2nc(-c3cccnc3)no2)nnn1-c1ccccc1,2.96%
8,COC(=O)CSC1=C(C#N)C(c2ccccc2)C(C(=O)Nc2ccccc2)=C(C)N1 (centres unmarked),37.3%
9,OCCCN1CCN(C2Cc3cc(F)ccc3Sc3ccc(Cl)cc32)CC1 (centres unmarked),0.488%
10,CCCCOC(=O)CNc1nnc(O)nc1O,-2.62%
11,COc1cc(-c2nnc3sc(-c4ccccc4Br)nn23)cc(OC)c1OC,7.5%
12,O=C(CN1CCCCC1)c1ccccc1,2.56%
13,COc1ccc(C(=O)c2ccccc2)cc1CN1CCOCC1,-4.96%
14,COCCN1C(=O)c2ccccc2C(C(=O)N(C)Cc2ccccc2)C1c1cn(C)c2ccccc12 (centres unmarked),7.15%
15,CC(C)(C)Nc1nc2c(S(=O)(=O)c3ccccc3)nnn2c2ccccc12,15.5%
16,COc1ccc(-c2c(C(C)=O)c(C)nc3sc4c(c23)NC(c2ccccc2)NC4=O)cc1 (centres unmarked),-6.57%
17,Cc1cc(=O)n2nc(-c3ccccc3)sc2n1,1.24%
18,CCCCNC(=O)c1cn(-c2ccccc2)nc1-c1ccccc1,2.38%
19,C=C(C)Cn1c(SCCC(C)C)nc2c1c(=O)[nH]c(=O)n2C,-5.14%
20,CCn1cc(/C=C(/C#N)C(N)=O)c2ccccc21,-4.32%
21,CC(C)CCOc1ccc(C(=O)CCN(C)C)cc1,3.17%
22,CC1CCCN(C(=O)c2cc3c(-c4ccccc4F)nn(C)c3s2)C1 (centres unmarked),1.79%

row,Compound,% Inhibition @ 10 uM
1,O=C(Nc1ccc(Cl)cc1C(=O)NCCO)c1ccco1,-1.68%
2,COc1cc(OC)c(OC)cc1/C=C1N=C(/C=C/c2ccccc2)OC\1=O,-34.9%
3,O=C(CCN1C(=O)c2ccccc2C1=O)N1CCCCCC1,1.44%
4,CCCCCCCCc1ccc(-c2ccc(C(=N)NO)cc2)cc1,-2%
5,c1cc2c(cc1CNC13CC4CC(CC(C4)C1)C3)OCO2,-3.32%
6,COc1cc(CNCc2c(C(=O)O)n(Cc3ccccc3C)c3ccccc23)cc(OC)c1OC,-1.34%
7,Clc1cccc(N2CCN(Cc3c[nH]c4ccccc34)CC2)c1,-5.57%
8,CC1=CC(C)(C)NC(=S)N1c1ccc(C(=O)/C=C/c2ccccc2)cc1,-0.687%
9,O=C(O)CN(Cc1ccc(Br)cc1)S(=O)(=O)c1ccccc1,1.08%
10,O=S(=O)(c1ccc(-c2cc(C(F)(F)F)no2)s1)N1CCC2(CC1)OCCO2,-0.895%
11,O=C(CN1CCCCCC1)N1c2ccccc2Sc2ccc(Cl)cc21,-7.54%
12,CC(NC(=O)Cn1ncc2ccccc21)c1ccccc1 (centres unmarked),3.29%
13,Cc1cccc(Nc2nc3c(c(=O)[nH]c(=O)n3C)n2CCC#N)c1,-3.58%
14,CC(C)(C)C1CCC(NCCN2CCOCC2)CC1 (centres unmarked),-5.44%
15,COc1ccccc1C(=O)N1CC2(C)CC1CC(C)(C)C2 (centres unmarked),-5.15%
16,COc1ccc2nc(Cl)c(C3CC(c4ccc(Cl)cc4)=NN3C(C)=O)cc2c1 (centres unmarked),4.18%
17,CCC(CCC(C)C1CCC2C3CC(O)C4(O)CC(O)CCC4(C)C3CCC12C)C(C)C (centres unmarked),-1.32%
18,COc1cc2c3c(c1)C(C)CC(C)(C)N3C(=O)C2=O (centres unmarked),4.7%
19,O=C(COc1ccccc1)NC(Cc1c[nH]c2ccccc12)C(=O)O (centres unmarked),10.2%
20,O=C(COc1cccc(Cl)c1)NC1CCCCC1,0.997%
21,COc1cc(CNCc2ccc(OC)c(C)c2)cc(OC)c1,-4.7%
